Reference: PubChem BioAssay AID488969 (Vanderbilt High Throughput Screening Facility, 2010)
In all, about 110,000 compounds were measured (“z-score”: median about -0.1, highest 2% from about 2 on). The list shows a part of the results. Active and inactive are the calls of the source.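 Rule for the calls: active = z-score in the third read window above 3 or below -3; inactive = the rest.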

What follows are molecules tested against Metabotropic glutamate receptor 8 (Rattus norvegicus) (UniProt P70579) (assay: mGluR8 Gi/Go-coupled signaling modulation – cell-based, rat, thallium flux, HTS, primary screen (AID 488969)). Conditions: HEK293 rat mGluR8, GIRK (G protein-gated inwardly rectifying potassium channel) thallium flux, FluoZin2; at 10 µM; stronger effect = higher value; submaximal glutamate (EC20) added with thallium.
Sequence of UniProt P70579 (P70579 whole entry, looked up): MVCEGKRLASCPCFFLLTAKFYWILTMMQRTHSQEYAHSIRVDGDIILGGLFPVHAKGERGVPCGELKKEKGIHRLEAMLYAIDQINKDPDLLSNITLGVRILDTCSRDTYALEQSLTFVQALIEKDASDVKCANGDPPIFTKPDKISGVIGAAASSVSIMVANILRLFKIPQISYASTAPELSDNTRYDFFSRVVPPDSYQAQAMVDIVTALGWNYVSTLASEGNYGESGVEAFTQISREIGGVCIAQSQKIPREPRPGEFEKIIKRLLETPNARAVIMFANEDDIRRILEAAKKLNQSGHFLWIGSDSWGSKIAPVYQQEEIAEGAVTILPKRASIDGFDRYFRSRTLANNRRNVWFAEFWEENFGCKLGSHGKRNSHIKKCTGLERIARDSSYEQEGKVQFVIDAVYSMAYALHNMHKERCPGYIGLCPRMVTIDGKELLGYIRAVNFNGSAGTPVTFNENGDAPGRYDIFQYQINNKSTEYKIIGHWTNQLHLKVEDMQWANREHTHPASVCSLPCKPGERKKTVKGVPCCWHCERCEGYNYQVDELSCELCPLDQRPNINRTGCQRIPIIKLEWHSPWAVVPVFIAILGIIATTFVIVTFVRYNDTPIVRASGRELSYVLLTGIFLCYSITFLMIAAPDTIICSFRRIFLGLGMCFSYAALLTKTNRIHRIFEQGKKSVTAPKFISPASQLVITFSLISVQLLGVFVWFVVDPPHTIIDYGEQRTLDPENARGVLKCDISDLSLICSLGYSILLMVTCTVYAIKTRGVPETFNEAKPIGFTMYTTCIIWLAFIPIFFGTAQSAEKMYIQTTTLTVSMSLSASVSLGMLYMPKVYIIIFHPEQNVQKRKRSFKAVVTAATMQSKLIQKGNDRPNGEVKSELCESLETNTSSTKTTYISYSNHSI
For `CN(C)c1ccc(C2=NOC(CN3C(=O)c4ccccc4S3(=O)=O)C2)cc1` (configuration not stated), the z-score was 0.443. `Cc1c(Cl)cccc1NC(=S)N1CCN(Cc2ccccc2)CC1` gave a z-score of -0.495. `Cc1ccc(C(=O)N/C(N)=N/c2nc3ccccc3o2)cc1` was tested, and the z-score was -0.204. `COc1ccc(-c2csc(N3C(=N)SCC3=O)n2)cc1` was tested, and the z-score was -0.116. `CC(NC(=O)/C(=C/c1cccc([N+](=O)[O-])c1)NC(=O)c1ccco1)C(=O)O` (configuration not stated) was tested, and the z-score was -0.753. Molecule `COc1ccc(OC)c(C2c3c(oc4ccccc4c3=O)C(=O)N2CCCN(C)C)c1` (configuration not stated) has a z-score of -0.648. `COC(=O)c1sccc1-c1ccc(/C=N/OC(=O)c2ccccc2)o1` gave a z-score of -0.169. Molecule `CC(C)NC(=O)c1ccccc1NC(=O)c1ccccc1N(C)S(C)(=O)=O` has a z-score of 0.524. `O=C(NC1C=CS(=O)(=O)C1)c1sc2ccccc2c1Cl` (configuration not stated) gave a z-score of -0.491. `CSc1nc(NC(C)(C)C)nc(Oc2ccc(=O)[nH]n2)n1` was tested, and the z-score was -0.539. Molecule `COc1ccccc1Nc1nc(N)nc(-c2oc3ccccc3c2C)n1` has a z-score of -0.532. `O=C(CCCC(=O)OCC(=O)c1ccc(F)cc1)Nc1cc(C(F)(F)F)ccc1Cl` was tested, and the z-score was -0.289. In the case of `CCN(CC)C(=O)C(=O)Nc1cc(C(F)(F)F)ccc1Cl`, the z-score is reported as -0.269. Work on `Cc1nn(Cc2ccc(Cl)cc2)c(Cl)c1/C=N/NC(=O)c1cccnc1` yielded a z-score of -0.279. Molecule `Cc1[nH]nc2c1C1(CCOC1C)C(C#N)=C(N)O2` (configuration not stated) has a z-score of -0.159. With `COc1cccc(NC2=Nc3cccc4cccc2c34)c1` the z-score was -0.0945. `CC1C(=O)CC(c2ccccc2)N(C)C1c1ccccc1` (configuration not stated) showed a z-score of -0.0361. For `Nc1ccccc1SCc1cc([N+](=O)[O-])cc2c1OCOC2`, the z-score was -0.345. With `O=C(Nc1nc2c(s1)CCCC2)c1nn(Cc2ccccc2)c(=O)c2ccccc12` the z-score was -0.449. `NNC(=O)c1cccc(COc2ccccc2Br)c1` was tested, and the z-score was -0.116. `COc1cc(C=C(c2nc3ccccc3s2)c2nc3ccccc3s2)cc(OC)c1O` showed a z-score of -0.0321. `COCCNC(=O)CSc1nc2nc(C)cc(C)n2n1` gave a z-score of 0.333. Work on `Fc1cccc(F)c1/C=C/c1ccc2ccccc2n1` yielded a z-score of 0.134. `COc1ccc(OCC(=O)O/N=C(\N)Cc2cccs2)cc1` was tested, and the z-score was -0.241. Molecule `COC(=O)C1=C(C)NC(=O)C1(Nc1nccs1)C(F)(F)F` (configuration not stated) has a z-score of 0.151. `CC(=O)N1N=C(c2ccncc2)OC12CCCC2` gave a z-score of 0.267. `CCC(CC)NC(=O)c1n[nH]c(=O)c2ccccc12` gave a z-score of 0.141. In the case of `CC1(C(=O)CSc2nc3ccccc3[nH]2)CCC(=O)O1` (configuration not stated), the z-score is reported as 0.199. In the case of `Cc1ccc2nc(-c3ccccc3)cc(C(=O)N3CCc4ccccc4C3)c2c1`, the z-score is reported as -0.613. With `Cc1cc(Br)c2[nH]c3c(c2c1)CCCC3=O` the z-score was 1.57. Molecule `COc1ccc(C=C(c2ccc(OC)cc2)c2ccc(OC)cc2)cc1` has a z-score of -0.157. `Cc1ccc(N2C(=O)c3cccc(Oc4ccc(Cl)cc4)c3C2=O)c(C)c1` showed a z-score of -0.0489. For `Cc1ccc(NC(=O)N2CCc3ccccc3C2)cc1`, the z-score was -0.106. `CC(=O)N(c1ccc2oc(=O)sc2c1)S(=O)(=O)c1cccs1` gave a z-score of -1.33. `Cc1cc(C)c(S(=O)(=O)c2c(C)cccc2C)c(OCC(C)C)n1` was tested, and the z-score was -0.113. Work on `C=CCc1c(C)nc(C)nc1N/N=C/c1ccc(N(C)C)cc1` yielded a z-score of -0.44. `Cc1ccc(N=N/C(=C\O)C(=O)c2ccncc2)cc1` gave a z-score of 0.149. `CCOC(=O)c1sc(-n2[nH]c(C)cc2=O)nc1C` was tested, and the z-score was 0.908. `Cc1ccc(S(=O)(=O)N(CC(=O)N2CCOCC2)C2CCCCC2)cc1` gave a z-score of -0.206. `COc1ccc(Nc2nc(NCc3ccco3)nc(N/N=C/c3ccccc3Cl)n2)cc1` was tested, and the z-score was -2.11. For `O=c1c2c3c(sc2nc(NCCO)n1Cc1ccco1)CCCCC3`, the z-score was 0.278. `Cc1cc(C)nc(NC(=O)c2ccc(Cl)c(Cl)c2)n1` showed a z-score of 0.159. `NC(=O)C1CCN(C(=O)c2ccco2)CC1` showed a z-score of 0.148. Work on `CCCN1C(=O)C(O)(CC(=O)c2ccc3c(c2)OCCO3)c2ccccc21` (configuration not stated) yielded a z-score of -0.33. `CCC(=O)Nc1cccc(NC(=S)NC(=O)c2ccccc2)c1` was tested, and the z-score was -0.455. With `CCCCCn1c(CN(C)Cc2ccccc2)nc2c1c(=O)n(C)c(=O)n2C` the z-score was 0.218. `CC(C)N(Cc1ccccc1)S(=O)(=O)N(C)C` gave a z-score of -0.0764. For `CCOc1ccc(NC(=S)NN2CCN(C)CC2)cc1`, the z-score was -0.0721. `COc1ccccc1C1CC(c2c(-c3ccccc3)c3cc(Cl)ccc3[nH]c2=O)=NN1S(C)(=O)=O` (configuration not stated) was tested, and the z-score was 0.286. Work on `C=CCN(C(=O)c1ccccc1)c1ccc(OC)cc1` yielded a z-score of -0.282. With `CCC1(C)Cc2ccccc2-c2nc(-c3ccccc3)oc(=O)c21` (configuration not stated) the z-score was -0.0643. Molecule `Cc1cnc(C(=O)Nc2ccc(N3CCN(C(=O)OC(C)(C)C)CC3)cc2)cn1` has a z-score of 0.415. Work on `CC(=O)Nc1ccccc1C(=O)C(=O)Nc1cccc(C(=O)NCc2ccccc2)c1` yielded a z-score of 1.12. `Cc1ccc(S(=O)(=O)N2CCN(CC(=O)N(CC(C)C)c3c(N)n(CC(C)C)c(=O)[nH]c3=O)CC2)c(C)c1` showed a z-score of -0.207. In the case of `CC(NC(=O)/C=C/c1ccco1)c1nc2ccccc2n1Cc1cccc(Cl)c1` (configuration not stated), the z-score is reported as -0.452. In the case of `Cc1cccc(-c2nc(CS(=O)CC(=O)NC3CCCC3)c(C)o2)c1` (configuration not stated), the z-score is reported as -0.388. `CC(=O)Nc1ccc(OCC(=O)NCCc2ccc(Cl)cc2)cc1` gave a z-score of -0.248. Molecule `CCCCOC(=O)CCc1c(C)[nH]c(=O)c(C#N)c1C` has a z-score of 0.328. Work on `Nc1nc2ccccc2nc1N1CCCC1` yielded a z-score of -0.139. Work on `Cc1sc(NC(=O)c2ccco2)c(C(=O)c2ccc(Cl)cc2)c1C` yielded a z-score of -0.135. `CCOc1ccccc1C(=O)N(C)Cc1cc2ccccc2[nH]c1=O` gave a z-score of -0.136. `O=C(COc1ccccc1)NCC(=O)N/N=C/c1cc(Br)ccc1OCc1ccccc1` gave a z-score of -0.0662. `c1ccc(C2OCC3(CO2)COC(c2ccccc2)OC3)cc1` (configuration not stated) gave a z-score of -0.213. In the case of `Cc1ccc(-n2nc(-c3cccs3)cc2C(=O)NCC2CCCO2)c(C)c1` (configuration not stated), the z-score is reported as active: -3.26. Work on `Cc1cc(C(=O)NC(C)C2CCCO2)cs1` (configuration not stated) yielded a z-score of 0.307. Work on `CCOC(=O)Cc1csc(NC(=O)CSc2nnnn2-c2ccc(F)cc2)n1` yielded a z-score of 0.951. `N#C/C(=C(/O)Cc1cccc2ccccc12)c1nc2ccccc2s1` gave a z-score of -0.341. `Cc1ccc(NC(=O)CCC(C(=O)O)N2C(=O)c3ccccc3C2=O)cc1` (configuration not stated) was tested, and the z-score was -0.00744. With `O=C(c1cccc(F)c1)N1CCN(C(=O)c2nn3cccnc3c2Cl)CC1` the z-score was -0.043. Work on `Cn1nnnc1SCC(=O)Nc1ccc(Cl)cc1Cl` yielded a z-score of 0.069. Molecule `O=C1/C(=C/c2ccco2)N=C(N2CCCCC2)N1c1ccccc1` has a z-score of -0.387. `CCn1c(SCC(=O)NC2CCCC2)nnc1-c1c[nH]c2ccccc12` gave a z-score of -0.117. With `COc1ccc(CCNS(=O)(=O)c2ccc3c(c2)CCN3C(=O)CCC(=O)O)cc1OC` the z-score was 0.0693. With `CCCc1cc2c(c(NC(C)=O)n1)c(=O)oc1ccccc12` the z-score was 0.703. `COc1ccc(C2C(C#N)=C(N)OC3=C2C(=O)CCC3)cc1Cn1nc(C)c([N+](=O)[O-])c1C` (configuration not stated) was tested, and the z-score was -0.18. Work on `C=C(C)Cn1c(Sc2nnc(C)s2)nc2c1c(=O)[nH]c(=O)n2C` yielded a z-score of 1.46. `Cc1c(C(=O)Nc2c(C)n(C)n(-c3ccccc3)c2=O)oc2ccccc12` gave a z-score of 0.492. Work on `CCCCCCC1CC(CSc2ncn[nH]2)OC1=O` (configuration not stated) yielded a z-score of -0.0128. `O=C(Oc1ccc2c(=O)c(Oc3ccc4ccccc4c3)coc2c1)c1ccco1` showed a z-score of -0.534. In the case of `Cc1sc2ncn(CC(=O)NCc3ccccn3)c(=O)c2c1S(=O)(=O)N1CCOCC1`, the z-score is reported as 0.542. Work on `COc1cc2c(cc1NC(=O)c1ccc(C)c([N+](=O)[O-])c1)oc1ccccc12` yielded a z-score of -0.706. With `Cc1cc(-c2ccccc2)c(C#N)c(SCC(N)=O)n1` the z-score was 0.0144. In the case of `COc1ccc(N2CCN(C(=O)CCc3ccc(S(=O)(=O)NCC(C)C)cc3)CC2)cc1`, the z-score is reported as -0.82. For `COC(=O)c1ccc(NC(=S)Nc2ccccc2)cc1`, the z-score was 0.0759. With `COc1ccccc1NS(=O)(=O)/C=C/c1ccccc1` the z-score was -0.311. `CSc1nc(C)c2c(n1)N(c1ccc(F)cc1)CC2` was tested, and the z-score was -0.0784. Molecule `O=C1NC(c2ccc(-c3ccccc3[N+](=O)[O-])o2)C(C(=O)c2ccccc2)C(O)(C(F)(F)F)N1` (configuration not stated) has a z-score of 0.136. For `Cc1cccc(NC(=O)C2CCCN(S(=O)(=O)c3cccc4nsnc34)C2)c1` (configuration not stated), the z-score was 0.431. In the case of `O=C(NCc1ccco1)c1nc2ncccn2n1`, the z-score is reported as -0.0347. With `COc1cc(SC)ccc1C(=O)NCC1CCCO1` (configuration not stated) the z-score was 0.267. With `Cc1cccc(N=C2NC(=O)S/C2=C\c2ccco2)c1` the z-score was -0.382. `CC1CCc2c(sc(N)c2C(=O)OC(C)C)C1` (configuration not stated) was tested, and the z-score was 0.201. Work on `O=C(NCc1ccncc1)C1CCN(S(=O)(=O)Cc2ccccc2)CC1` yielded a z-score of -0.264. `COc1ccc(CNC(=O)Cn2nc(Cc3cccnc3)c3ccccc3c2=O)cc1` was tested, and the z-score was -0.168. `COc1cc(-c2nc(-c3ccc4c(c3)-c3ccccc3S4(=O)=O)c(-c3ccccc3)[nH]2)cc(OC)c1OC` was tested, and the z-score was -0.0889. `CCc1c(C)nc2ncnn2c1N1CCCC(C(=O)NCCc2ccccc2)C1` (configuration not stated) gave a z-score of 0.12. For `Cc1ccc2cccc(NC(=S)NC(=O)c3ccccc3)c2n1`, the z-score was 1.02. Work on `Cc1noc(C)c1C(=O)OCC(=O)Nc1ccccc1Oc1ccccc1` yielded a z-score of -0.286. For `Cn1nc(CC(=O)NC2CCCCCC2)c2ccccc2c1=O`, the z-score was 0.0187. For `O=C(O)CCc1ccc(-c2ccccc2)o1`, the z-score was 0.23. With `COc1cc(NS(=O)(=O)c2ccc(NS(=O)(=O)c3ccccc3)cc2)nc(OC)n1` the z-score was -0.542. Molecule `COc1ccc(NC(=O)CSc2nnc(-c3ccccn3)n2N)c(OC)c1` has a z-score of 0.305. With `CN1CCC(OC(=O)COc2ccccc2)CC1` the z-score was -0.0301. Work on `CC1(C)Cc2ccccc2C(/C(=N/O)C(N)=O)=N1` yielded a z-score of -0.57. `CCOP(=O)(c1ccccc1)c1nc(-c2ccccc2Cl)oc1N1CCCCC1` (configuration not stated) gave a z-score of -0.646. Work on `O=C(CN1C2=NCCN2c2ccccc21)c1ccc2c(c1)OCO2` yielded a z-score of 0.194. With `Cc1cccc(C)c1NC(=O)C1c2ccccc2Oc2ccccc21` the z-score was 0.0271. Molecule `CCC(C)NC(=O)NC1C(NC(=O)NC(C)CC)N(C)C(=O)N1C` (configuration not stated) has a z-score of 0.0351. `O=C(c1cccc(N2C(=O)C3CC=CCC3C2=O)c1)N1CCCCCC1` (configuration not stated) showed a z-score of -0.249. `CCOc1cccc(NC(=O)C2CC(=O)N(C)C(=Nc3cccc(F)c3)S2)c1` (configuration not stated) showed a z-score of 0.605. Molecule `COc1cc2c(cc1OC)C(C)N(C(=O)c1ccc(Br)o1)CC2` (configuration not stated) has a z-score of -0.202. Molecule `COc1ccc(Oc2coc3cc(OC(=O)c4cccs4)ccc3c2=O)cc1` has a z-score of -0.0373.
